Measurements: article PMC4336329 (PLoS ONE, 2015)
The campaign covered roughly 310,000 compounds. About 14,000 (4.5%) showed an effect of 50% or more. Effects have a minus sign here. The list shows a part of the results.

Molecular target: human ether-à-go-go-related gene (hERG) potassium channel (human, UniProt Q12809)
Test: primary screen, population patch clamp on CHO cells stably expressing hERG
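Further: peak tail current of the secondary pulse compared with the same well before compound.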

human ether-à-go-go-related gene (hERG) potassium channel, sequence (Q12809 whole entry, looked up): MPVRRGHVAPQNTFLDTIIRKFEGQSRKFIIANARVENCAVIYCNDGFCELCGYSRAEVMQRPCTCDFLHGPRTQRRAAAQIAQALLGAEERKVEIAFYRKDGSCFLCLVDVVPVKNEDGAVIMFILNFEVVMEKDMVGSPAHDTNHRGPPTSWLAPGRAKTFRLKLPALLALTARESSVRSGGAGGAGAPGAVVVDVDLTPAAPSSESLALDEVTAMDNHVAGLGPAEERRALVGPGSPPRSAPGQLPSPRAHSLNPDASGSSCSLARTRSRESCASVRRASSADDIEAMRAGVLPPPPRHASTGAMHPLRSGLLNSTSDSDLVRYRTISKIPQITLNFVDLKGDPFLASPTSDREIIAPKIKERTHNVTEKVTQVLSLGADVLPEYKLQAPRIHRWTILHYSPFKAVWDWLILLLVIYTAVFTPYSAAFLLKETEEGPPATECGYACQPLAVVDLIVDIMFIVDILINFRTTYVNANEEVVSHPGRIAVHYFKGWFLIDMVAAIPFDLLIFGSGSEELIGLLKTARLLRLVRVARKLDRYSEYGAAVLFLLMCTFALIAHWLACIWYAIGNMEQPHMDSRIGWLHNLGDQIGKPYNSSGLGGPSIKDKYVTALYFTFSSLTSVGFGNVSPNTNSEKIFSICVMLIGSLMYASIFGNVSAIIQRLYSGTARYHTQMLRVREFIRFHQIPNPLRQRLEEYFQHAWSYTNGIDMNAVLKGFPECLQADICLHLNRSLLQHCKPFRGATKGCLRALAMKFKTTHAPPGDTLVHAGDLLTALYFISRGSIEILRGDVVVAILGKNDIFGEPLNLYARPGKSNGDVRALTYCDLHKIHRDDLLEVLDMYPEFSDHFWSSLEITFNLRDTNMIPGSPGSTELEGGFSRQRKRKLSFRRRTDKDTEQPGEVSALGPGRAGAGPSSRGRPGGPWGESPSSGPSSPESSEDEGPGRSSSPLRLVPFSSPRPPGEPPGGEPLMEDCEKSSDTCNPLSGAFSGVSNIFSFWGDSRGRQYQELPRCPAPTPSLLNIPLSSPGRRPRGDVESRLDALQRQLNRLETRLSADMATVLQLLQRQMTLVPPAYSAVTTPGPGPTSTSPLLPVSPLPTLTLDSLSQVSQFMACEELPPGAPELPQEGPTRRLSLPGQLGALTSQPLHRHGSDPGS

SMILES	hERG current change (%, negative = inhibition) at 10uM [%]
Cc1cc(C)c(COCc2cc(/C=N/O)c(C)cc2C)cc1/C=N/O	6.96
COc1ccc(NC(=O)c2c(C)nn(-c3ccccc3)c2Cl)cc1	20.4
CCCCc1ccc(NC(=O)C(=O)NCCN2CCN(Cc3ccc([N+](=O)[O-])cc3)CC2)cc1	-66.7
Cc1ccc(S(=O)(=O)N2CCCC2CNC(=O)C(=O)NC2CC2)cc1 (stereo not shown)	3.03
COc1ccccc1OCCNC(=O)c1ccccc1C	12.1
CCC(=O)Nc1ccc(C(=O)NNC(=O)c2cccs2)cc1	1.76
O=C(Nc1cccnc1)c1ccc([N+](=O)[O-])cc1Cl	1.29
CCOC(=O)Cn1c(=N)n(Cc2ccccc2F)c2ccccc21.Cl	-28.3
COc1ccc(Nc2nc(S(=O)(=O)c3ccc(C)cc3)c(Cl)s2)cc1	15.4
CC(C)CN(C(=O)c1ccc([N+](=O)[O-])s1)c1c(N)n(Cc2ccccc2)c(=O)[nH]c1=O	10.3
Cn1c(Sc2ccc(Cl)cc2)c(C=O)c2ccccc21	7.61
CCOc1ccc(S(=O)(=O)Nc2ccc(O)c(Sc3ncn[nH]3)c2)cc1	0.463
O=S(=O)([N-]c1nc2ccccc2nc1-n1cc[n+](Cc2ccccc2)c1)c1ccc(Br)cc1	18.4
CCn1nnnc1SCC(=O)c1ccc(C)cc1C	6.95
O=C(Cc1ccccc1)NC(NCCCN1CCOCC1)(C(F)(F)F)C(F)(F)F	5.2
CCOCCCNC(=O)c1cccc(OC2CCN(S(C)(=O)=O)CC2)c1	12.6
CC(C)CCN1CC(O)=C(c2nc3ccccc3[nH]2)C1=N	-15.3
COc1cccc(CNc2ccc([N+](=O)[O-])cc2Cl)c1O	9.67
CCOC(=O)C(=O)/C(=C\N(C)C)c1onc(-c2c(F)cccc2Cl)c1C(=O)OC	-3.09
CCN(CC)S(=O)(=O)c1ccc(NC(=O)c2cccc3c2C(=O)N(CCOC)C3)cc1	-1.36
CCOC(=O)c1[nH]c2ccc(Br)cc2c1NC(=O)CCN1CCCC(C)(C)C1	-75.7
CCCC(=O)Nc1ccc(Nc2ccccc2)cc1	7.75

SMILES	hERG current change (%, negative = inhibition) at 10uM [%]
CCCC(=O)Nc1ccccc1NC(=O)C1CCCCC1	13
CN1CCN(c2ccc(NC(=S)NC(=O)/C=C/c3ccco3)cc2)CC1	-7.96
CC(=O)C1=C(C)NC2=C(C(=O)c3ccccc32)C1c1ccccc1 (stereo not shown)	4.66
Nc1nc(COc2ccc(F)cc2)nc(N2CCCCC2)n1	6.11
COc1ccc(NC(=O)/C(=C/c2ccc3c(c2)OCO3)NC(C)=O)cc1	14.3
COc1ccc(OCCSc2nnc(CCNC(=O)c3ccc(OC)cc3)n2C)cc1	-6.83
Cc1ccc(NNC(=O)C(=O)N2CCCCC2)cc1	8.98
CC(=O)N(CCc1ccccc1C)Cc1cc2ccc(C)cc2[nH]c1=O	-18.3
O=C(Nc1cccc(NC(=O)c2cc([N+](=O)[O-])ccc2Cl)n1)c1cc([N+](=O)[O-])ccc1Cl	-12.7
Cc1ccc(NC(=O)c2cc3c(=O)oc4ccccc4c3s2)nc1	-11.1
COC(C(=O)Nc1cc([N+](=O)[O-])ccc1C)c1ccccc1 (stereo not shown)	-18.7
COc1ccc2c(=O)c3c(=O)n(Cc4ccco4)c(-c4cc(OC)c(OC)c(OC)c4)nc3oc2c1	-16
O=C(CN(C1CCCCC1)S(=O)(=O)c1ccc(Br)cc1)NCc1ccncc1	-72.9
COc1ccc(NC(=O)C(CC(=O)O)Cc2ccc(Cl)cc2)cc1 (stereo not shown)	11.9
CCCc1cc(=O)oc2c(C)c(OCC(=O)NC3CCN(Cc4ccccc4)CC3)ccc12	-51.4
COc1ccc(C(=O)NC(=S)Nc2ccc(N3CCCC3)cc2)cc1	33.8
CCCN(C(=O)COc1ccc(Cl)cc1Cl)c1c(N)n(Cc2ccccc2)c(=O)[nH]c1=O	-37.9
Cn1cccc1C(=O)OCC(=O)Nc1cc(C(C)(C)C)nn1-c1ccccc1	-29.2
O=C(N/C(=C/c1ccc(Br)cc1)C(=O)N1CCCCC1)c1ccccc1F	-40.7
C#C[C@]1(O)CC[C@H]2[C@@H]3CCC4=C(CCC(=O)C4)[C@H]3CC[C@@]21C	14.8
N#CCC(CNc1ncc(C(F)(F)F)cc1Cl)OC(=O)c1cccc([N+](=O)[O-])c1 (stereo not shown)	-47.8
